{"source": "PubChem BioAssay AID504332", "about": "(National Center for Advancing Translational Sciences (NCATS), 2011)", "note": "In all, about 350,000 compounds went through this assay and about 31,000 (8.9%) were called active. This list was built around the results that the source calls inconclusive (neither active nor inactive); the mix of calls is not that of the screen. The call rests on the fitted dose curve; in most records, active means well fitted inhibition curve with a large enough effect; inconclusive means small, poorly fitted or top-dose-only effect; inactive means no such curve, though single readings can be large or run the other way. Potencies beside an inconclusive call are fits to weak or partial responses and may not hold up. On the % scale 0 is the no-effect control and ±100 the full control effect; potency means the concentration at half of the fitted maximal effect; tags describe the fitted curve by direction and shape.", "data": [{"biological_target": "Histone-lysine N-methyltransferase EHMT2 (Homo sapiens) (UniProt Q96KQ7)", "sequence (Q96KQ7 whole entry, looked up)": "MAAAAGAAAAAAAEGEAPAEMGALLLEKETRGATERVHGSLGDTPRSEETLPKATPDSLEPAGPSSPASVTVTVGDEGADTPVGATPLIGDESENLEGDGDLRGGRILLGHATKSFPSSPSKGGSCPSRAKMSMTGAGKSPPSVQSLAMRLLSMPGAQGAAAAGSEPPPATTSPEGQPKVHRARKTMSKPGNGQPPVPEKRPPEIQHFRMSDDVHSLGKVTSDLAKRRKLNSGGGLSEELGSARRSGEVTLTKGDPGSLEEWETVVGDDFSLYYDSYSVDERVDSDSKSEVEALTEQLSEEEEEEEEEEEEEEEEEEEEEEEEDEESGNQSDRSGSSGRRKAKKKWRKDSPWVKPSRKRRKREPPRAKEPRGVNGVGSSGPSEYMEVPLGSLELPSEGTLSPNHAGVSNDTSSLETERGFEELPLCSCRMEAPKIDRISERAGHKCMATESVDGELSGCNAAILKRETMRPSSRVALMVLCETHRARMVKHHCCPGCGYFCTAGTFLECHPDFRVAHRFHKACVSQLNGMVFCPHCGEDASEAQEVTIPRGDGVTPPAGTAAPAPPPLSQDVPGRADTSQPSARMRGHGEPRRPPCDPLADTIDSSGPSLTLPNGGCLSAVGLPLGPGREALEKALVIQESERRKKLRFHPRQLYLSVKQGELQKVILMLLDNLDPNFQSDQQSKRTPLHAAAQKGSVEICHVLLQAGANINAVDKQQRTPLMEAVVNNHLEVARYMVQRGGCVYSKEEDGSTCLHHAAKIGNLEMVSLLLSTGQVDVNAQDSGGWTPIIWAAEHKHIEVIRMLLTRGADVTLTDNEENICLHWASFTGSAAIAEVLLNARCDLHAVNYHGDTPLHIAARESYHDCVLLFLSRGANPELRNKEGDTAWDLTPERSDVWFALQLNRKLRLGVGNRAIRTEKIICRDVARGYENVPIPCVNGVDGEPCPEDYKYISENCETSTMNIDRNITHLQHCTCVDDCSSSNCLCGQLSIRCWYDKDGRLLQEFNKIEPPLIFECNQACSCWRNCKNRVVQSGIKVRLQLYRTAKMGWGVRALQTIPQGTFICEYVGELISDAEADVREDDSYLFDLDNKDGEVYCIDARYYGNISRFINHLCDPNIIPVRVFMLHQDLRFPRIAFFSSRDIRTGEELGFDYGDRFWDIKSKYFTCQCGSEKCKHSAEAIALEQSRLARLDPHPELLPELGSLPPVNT", "assay": "qHTS Assay for Inhibitors of Histone Lysine Methyltransferase G9a; further: nearly all actives have a fitted effect of over 75% in size", "details": "G9a H3K9 monomethylation, AlphaScreen, 2 h; activity, negative = inhibition: at 59 µM (top of the series) unless noted", "in_short": "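AlphaScreen detection with an anti-monomethyl H3K9 antibody quantified product after a 2 h room-temperature reaction containing 500 nM biotinylated H3K9 peptide, 20 µM SAM and 20 nM enzyme, which had been preincubated 15 min with compound.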", "values": [{"smiles": "COc1ccccc1-c1noc2ncnc(Nc3ccccc3C)c12", "Potency": "inconclusive: 56.2 µM [inhibitor, partial curve, poor fit]"}, {"smiles": "CNc1nc(-c2cccnc2)nc2ccccc12", "activity, negative = inhibition": "inactive: 0.464% [at 0.501 µM]"}, {"smiles": "Cc1ccc(Nc2nc(CSc3nnc(-c4ccccc4C)n3C)cs2)cc1", "Potency": "active: 31.6 µM"}, {"smiles": "O=C(CSc1nnc(Nc2ccccc2F)s1)NCc1ccco1", "Potency": "inconclusive: 35.5 µM [inhibitor, partial curve, poor fit]"}, {"smiles": "CCOc1ccc(S(=O)(=O)NCc2ccc3c(c2)CCN3C(=O)c2ccc(C)cc2)cc1", "Potency": "inactive"}, {"smiles": "COc1ccc(C(=O)Nc2ccc(S(=O)(=O)Nc3onc(C)c3C)cc2)c(OC)c1", "Potency": "inconclusive: 50.1 µM [inhibitor, partial curve]"}, {"smiles": "c1coc(-c2ccc3ncnc(NCc4cccs4)c3c2)c1", "Potency": "inconclusive: 3.16 µM [inhibitor, partial curve]"}, {"smiles": "Cc1ccc(NCc2cc3cc4c(cc3n(CC(=O)Nc3ccc(F)cc3F)c2=O)OCCO4)cc1", "Potency": "inconclusive: 22.4 µM [inhibitor, single point]"}, {"smiles": "CC1CCN(S(=O)(=O)c2ccc(NC(=O)Cc3cccs3)cc2)CC1", "Potency": "inconclusive: 17.8 µM [inhibitor, single point]"}, {"smiles": "COCCN(C(=O)COC(=O)CCc1c[nH]c2ccccc12)c1c(N)n(Cc2ccccc2)c(=O)[nH]c1=O", "Potency": "inactive"}, {"smiles": "O=C(Nc1cccc2c1CCCC2)c1ccncc1", "Potency": "inconclusive: 28.2 µM [inhibitor, partial curve, poor fit]"}, {"smiles": "O=C(O)c1ccc(COc2ccccc2/C=C2\\NC(=O)N(Cc3ccccc3F)C2=O)cc1", "Potency": "inconclusive: 39.8 µM [inhibitor, partial curve, poor fit]"}, {"smiles": "CN(C)NC1=CC(=[N+]2CCCC2)CC(C)(C)C1", "Potency": "inconclusive: 2.51 µM [inhibitor, full curve, poor fit]"}, {"smiles": "O=C(CN1CCN(Cc2ccccc2)CC1)N/N=C/C=C/c1ccco1", "Potency": "inconclusive: 25.1 µM [inhibitor, single point]"}, {"smiles": "CCN(CC)CCNC(=O)c1ccc(-c2nc(CN3CCc4ccccc43)c(C)o2)cc1", "Potency": "inconclusive: 22.4 µM [inhibitor, single point]"}, {"smiles": "CC(=O)Nc1ccc(SCC(=O)Nc2ccccc2Oc2ccccc2)cc1", "Potency": "inconclusive: 100 µM [inhibitor, single point]"}, {"smiles": "NC(=O)COc1ccc2oc(-c3ccccc3)cc(=O)c2c1", "Potency": "active: 50.1 µM"}, {"smiles": "COc1ccc(N2CCC(CNC(=S)Nc3cccc(OC)c3)C2)cc1", "note": "(stereo not given)", "Potency": "inconclusive: 3.16 µM [inhibitor, partial curve, poor fit]"}, {"smiles": "CN(C(=O)/C=C/c1ccc([N+](=O)[O-])s1)c1ccccc1", "Potency": "active: 44.7 µM"}, {"smiles": "COc1ccc(C(=O)Oc2cc(C(=S)N3CCOCC3)ccc2OC)cc1", "Potency": "active: 31.6 µM"}, {"smiles": "CC(C)NCCCCOc1ccccc1-c1ccccc1", "Potency": "inconclusive: 7.08 µM [inhibitor, partial curve, poor fit]"}, {"smiles": "CCN(CC)C(=O)N1CCN(S(=O)(=O)c2c(C)cc(C)cc2C)CC1", "Potency": "inconclusive: 22.4 µM [inhibitor, partial curve, poor fit]"}, {"smiles": "Oc1ccc(-c2ccccc2)cc1CN1CCCCCC1", "activity, negative = inhibition": "inactive: -2.21% [at 2.33 µM]"}, {"smiles": "CCc1ccccc1N1C(=O)c2ccccc2S1(=O)=O", "Potency": "inconclusive: 22.4 µM [inhibitor, single point]"}, {"smiles": "CCn1nnnc1SCC(=O)Nc1ccc(N(C)C)cc1", "Potency": "active: 28.2 µM"}, {"smiles": "O=C(/C=C/c1ccccc1)Nc1nc2n(n1)C(c1ccc(Cl)cc1)C=C(c1ccccc1)N2", "note": "(stereo not given)", "Potency": "inconclusive: 39.8 µM [inhibitor, partial curve, poor fit]"}, {"smiles": "CCOc1ccc(CC(=O)OCN2C(=O)c3ccccc3C2=O)cc1", "Potency": "active: 39.8 µM"}, {"smiles": "CC(C)[C@H](NC(=O)OC(C)(C)C)C(=O)N/N=C/c1cccc2nccnc12", "Potency": "active: 4.47 µM"}, {"smiles": "COC(=O)c1cc(NC(=O)CN(c2ccccc2OC)S(=O)(=O)c2ccccc2)ccc1Cl", "Potency": "inconclusive: 0.251 µM [inhibitor, full curve, poor fit]"}, {"smiles": "Cc1c(NC(=O)Nc2ccc(C(C)C)cc2)c(=O)n(-c2ccccc2)n1C", "Potency": "inconclusive: 56.2 µM [inhibitor, partial curve]"}, {"smiles": "O=C(CCCOc1ccccc1)NCCc1ccccc1", "Potency": "inactive"}, {"smiles": "O=C(OC1CCOC1=O)c1cccc(S(=O)(=O)Nc2cccc(Cl)c2)c1", "note": "(stereo not given)", "Potency": "inactive"}, {"smiles": "CC(=O)/C(=N/Nc1ccccc1C)N1CCOCC1", "Potency": "active: 1 µM"}, {"smiles": "Cc1ccc(Cc2c(C)[nH]c(=S)[nH]c2=O)cc1", "Potency": "active: 44.7 µM"}, {"smiles": "COc1ccc(CC(=O)OCCN(C)C)cc1", "Potency": "inconclusive: 89.1 µM [inhibitor, single point]"}, {"smiles": "CC(C)CC(=O)NCC(c1ccc2c(c1)OCO2)N1CCN(c2ccc(F)cc2)CC1", "note": "(stereo not given)", "Potency": "inactive"}, {"smiles": "COc1ccc(-c2noc(C3CCCN(C(=O)c4c(F)cccc4F)C3)n2)cc1OC", "note": "(stereo not given)", "Potency": "inconclusive: 89.1 µM [inhibitor, single point]"}, {"smiles": "CC(C)(C)c1ccc(S(=O)(=O)c2cnc(SCC(=O)Nc3ccc4c(c3)OCCO4)[nH]c2=O)cc1", "Potency": "inactive"}, {"smiles": "CCOC(=O)c1sc2nc(C)nc(Nc3ccccc3)c2c1C", "Potency": "inconclusive: 28.2 µM [inhibitor, single point]"}, {"smiles": "CCOC(=O)c1cc(-c2ccccc2)n(CCCC(=O)Nc2cccc(C)c2)c1C", "Potency": "inconclusive: 7.94 µM [inhibitor, partial curve, poor fit]"}, {"smiles": "CN1CCN(CCn2c(=S)[nH]c3ccccc3c2=O)CC1", "Potency": "inconclusive: 79.4 µM [inhibitor, single point]"}, {"smiles": "CCCOc1ccc(NC(=O)CC2C(=O)N(c3ccc(OC)cc3)C(=O)N2CCc2ccncc2)cc1", "note": "(stereo not given)", "Potency": "inconclusive: 6.31 µM [inhibitor, partial curve, poor fit]"}, {"smiles": "O=C(Cn1nc(N2CCN(c3ccccc3)CC2)ccc1=O)NCc1ccccc1F", "Potency": "inactive"}, {"smiles": "CCOc1ccc(-n2c(N)c(C(=O)NCc3ccco3)sc2=S)cc1", "Potency": "inconclusive: 3.55 µM [inhibitor, single point]"}, {"smiles": "O=C(CCCSc1nc(-c2ccco2)cc(C(F)(F)F)n1)NCC1CCCO1", "note": "(stereo not given)", "Potency": "inconclusive: 39.8 µM [inhibitor, single point]"}, {"smiles": "CCOc1ccc2[nH]cc(C(=O)O)c(=O)c2c1", "activity, negative = inhibition": "inconclusive: -54% [inhibitor]"}, {"smiles": "c1ccc(-c2nnc(-c3ccccc3)nn2)cc1", "Potency": "inconclusive: 1.78 µM [inhibitor, full curve]"}, {"smiles": "COc1ccc2nc(SCC(O)c3cccc(Br)c3)[nH]c2c1", "note": "(stereo not given)", "Potency": "inconclusive: 39.8 µM [inhibitor, partial curve, poor fit]"}, {"smiles": "CCCS(=O)(=O)c1nc(S(=O)(=O)c2ccc(C)cc2)c(NCCCOC(C)C)s1", "Potency": "inconclusive: 14.1 µM [inhibitor, partial curve, poor fit]"}, {"smiles": "CCSc1nc2c(sc3nc(C)cc(C)c32)c(=O)[nH]1", "Potency": "inconclusive: 7.94 µM [inhibitor, full curve, poor fit]"}, {"smiles": "Cn1c(=O)c2c(nc(NCCc3ccccc3)n2Cc2ccccc2Br)n(C)c1=O", "Potency": "inactive"}, {"smiles": "O=c1c2ccccc2ccc2ccccc12", "activity, negative = inhibition": "inactive: 16.1% [at 2.33 µM]"}, {"smiles": "Nc1nc(SCn2nnc3ccccc3c2=O)n[nH]1", "Potency": "active: 50.1 µM"}, {"smiles": "Cc1ccc(-c2nnc(SCC(=O)NC(C)(C)C)nc2-c2ccc(C)cc2)cc1", "Potency": "inconclusive: 28.2 µM [inhibitor, single point]"}, {"smiles": "COc1ccc(-c2[nH]ncc2-c2cscn2)c(O)c1", "Potency": "inconclusive: 44.7 µM [inhibitor, partial curve, poor fit]"}, {"smiles": "Cc1ccc(-n2c(SCC(=O)Nc3cccc(S(N)(=O)=O)c3)nc3ccccc32)cc1", "Potency": "inconclusive: 28.2 µM [inhibitor, single point]"}, {"smiles": "O=C(Oc1ccccc1C(=S)N1CCOCC1)c1cccc([N+](=O)[O-])c1", "Potency": "active: 79.4 µM"}, {"smiles": "O=C(CN1C(=O)COc2ccccc21)c1ccc(Cl)cc1", "Potency": "inactive"}, {"smiles": "CSc1nc(-c2ccccc2)nn1S(=O)(=O)c1ccccc1", "Potency": "inconclusive: 31.6 µM [inhibitor, single point]"}, {"smiles": "COc1ccc(C(=O)CSc2nc(C)cc(=O)[nH]2)cc1", "Potency": "active: 25.1 µM"}, {"smiles": "Cc1nn(-c2ccccc2)c(C)c1NC(=O)COC(=O)Cc1cccc(C(F)(F)F)c1", "Potency": "inconclusive: 6.31 µM [inhibitor, partial curve]"}, {"smiles": "COc1ccccc1NC(=O)C1CCN(C(=O)NCc2ccccc2)CC1", "Potency": "inactive"}, {"smiles": "C/C(=N\\NC(=O)c1cccc2ccccc12)c1cccnc1", "Potency": "inconclusive: 31.6 µM [inhibitor, partial curve, poor fit]"}, {"smiles": "CCOC(=O)c1c(NC(C)=O)sc2c1CCCNC2=O", "Potency": "inactive"}, {"smiles": "CC(C)Cc1nc(SCC(=O)N2CCCC2)c2c(=O)n(C)c(=O)n(C)c2n1", "Potency": "inactive"}, {"smiles": "N/C(=N\\OC(=O)Cc1cccs1)c1ccc([N+](=O)[O-])cc1", "Potency": "inconclusive: 3.98 µM [inhibitor, partial curve, poor fit]"}, {"smiles": "COc1cc(OC)cc(C(=O)NC(=S)Nc2ccc3c4c(cccc24)CC3)c1", "activity, negative = inhibition": "inconclusive: -80.8% [inhibitor]"}, {"smiles": "CCOc1ccc(CNC(=O)CCCn2c(=O)c3cccn3c3ccccc32)cc1", "Potency": "inconclusive: 7.94 µM [inhibitor, partial curve, poor fit]"}, {"smiles": "CC1CCCC(C)N1C(=O)COC(=O)c1cc(-c2cccs2)nn1-c1ccccc1", "note": "(stereo not given)", "activity, negative = inhibition": "inactive: 18.5% [at 0.501 µM]"}, {"smiles": "O=C(Cn1cccc1)N1CCc2ccccc21", "Potency": "inconclusive: 89.1 µM [inhibitor, partial curve, poor fit]"}]}]}
